In the supplement of paper PMC7125110:
± gives the standard error. This sample is rich in variants without activity.

B1: glmS ribozyme (parent)
chain: AUAAAAGCGCCAGAACUACAGAAAUGUAGUUGACGAGGAGGAGGUUUAUCGAAUUUUCGGCGGAUGCCUCCAAA

Tests used:
Conditions in all cases: with glucosamine-6-phosphate
[1] = variants of: B1; test: self-cleavage kobs at 640 uM GlcN6P; higher = faster cleavage; RNA array
Summary of the method: (§1)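 On sequenced MiSeq chips, barcoded ribozyme variants were made in situ by E. coli RNA polymerase and followed at 37 °C through a hybridised Cy3 probe. Glucosamine-6-phosphate was flowed in at 40 μM to 10 mM in HEPES/KCl/Mg(OAc)2 buffer. Exponential fits to normalised per-tile medians gave kobs, and weighted Michaelis–Menten fits gave kcat and KM.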

[2] = variants of: B1; test: self-cleavage kobs at 2500 uM GlcN6P; higher = faster cleavage; RNA array
Summary of the method: as §1

[3] = variants of: B1; test: self-cleavage kobs at 10000 uM GlcN6P; higher = faster cleavage; RNA array
Summary of the method: as §1

[4] = variants of: B1; test: self-cleavage kobs at 160 uM GlcN6P; higher = faster cleavage; RNA array
Summary of the method: as §1

Variant	self-cleavage kobs at 640 uM GlcN6P [1]	self-cleavage kobs at 2500 uM GlcN6P [2]	self-cleavage kobs at 10000 uM GlcN6P [3]	self-cleavage kobs at 160 uM GlcN6P [4]
G13A U30G	3.9e-05 ± 1e-05 s⁻¹	0.000144 ± 3.3e-05 s⁻¹	0.000271 ± 3.9e-05 s⁻¹	
A12U A52G G62C	< 1e-05 s⁻¹			
C11A A12U A36C A48C G60U G62A	< 1e-05 s⁻¹	< 1e-05 s⁻¹		
C10U A15C G43U G63U	< 1e-05 s⁻¹	< 1e-05 s⁻¹		
C11G G35U U57A C70U	< 1e-05 s⁻¹	< 1e-05 s⁻¹		< 1e-05 s⁻¹
C10U G60U C70G	< 1e-05 s⁻¹			< 1e-05 s⁻¹
G13A U45A U49A	< 1e-05 s⁻¹	< 1e-05 s⁻¹		
G13A C16G G60A	< 1e-05 s⁻¹			< 1e-05 s⁻¹
C11A G32U G60A	< 1e-05 s⁻¹	< 1e-05 s⁻¹		
C11A A15G	8.86e-05 ± 1e-05 s⁻¹	0.000149 ± 1.9e-05 s⁻¹	0.000251 ± 3.3e-05 s⁻¹	3.04e-05 ± 1.5e-05 s⁻¹
C11A A52U C61G	< 1e-05 s⁻¹			
G13A G29C G66U	< 1e-05 s⁻¹			
C11A U56A C70U C71A	0.000256 ± 7.9e-05 s⁻¹			
C11U A12U U30C U57C G63A	< 1e-05 s⁻¹	< 1e-05 s⁻¹		
C10U U31C G38U G40C G44A C68G	< 1e-05 s⁻¹	< 1e-05 s⁻¹	< 1e-05 s⁻¹	< 1e-05 s⁻¹
G13A G44C U49A	< 1e-05 s⁻¹			
C10U G38C U54C U65C U69A	< 1e-05 s⁻¹			< 1e-05 s⁻¹
A12G A36U	< 1e-05 s⁻¹			
A12U A53C C67U	0.00253 ± 0.0006 s⁻¹			
G13A A15G G59C G66A	< 1e-05 s⁻¹			< 1e-05 s⁻¹
A12C G32U A33U	< 1e-05 s⁻¹	< 1e-05 s⁻¹		
G13A G43U U56G G60A C61U	< 1e-05 s⁻¹			

Variant	self-cleavage kobs at 640 uM GlcN6P [1]	self-cleavage kobs at 2500 uM GlcN6P [2]	self-cleavage kobs at 10000 uM GlcN6P [3]	self-cleavage kobs at 160 uM GlcN6P [4]
C10G U49C G66C	< 1e-05 s⁻¹	< 1e-05 s⁻¹		
C11A U46C	< 1e-05 s⁻¹			
C11G A33G A52C	< 1e-05 s⁻¹			< 1e-05 s⁻¹
C11A G32C A33U	< 1e-05 s⁻¹			
A12C U30A G35A	< 1e-05 s⁻¹			
A12U G32C G35C A42U	< 1e-05 s⁻¹			
C10U A15C G32A G38U G40U C67A	< 1e-05 s⁻¹			
A12C G32C G59C	< 1e-05 s⁻¹	< 1e-05 s⁻¹		
G13A G59A G62A	< 1e-05 s⁻¹			
C11A A39G C61U C70G	< 1e-05 s⁻¹	< 1e-05 s⁻¹		< 1e-05 s⁻¹
C10U A15C A48U U57A	< 1e-05 s⁻¹	< 1e-05 s⁻¹		
A12U G43A G51A	< 1e-05 s⁻¹		< 1e-05 s⁻¹	< 1e-05 s⁻¹
C11G A14U G37U G40U	< 1e-05 s⁻¹	< 1e-05 s⁻¹		
C11A G63A	< 1e-05 s⁻¹			
C11U G29C G43U G44U	< 1e-05 s⁻¹	< 1e-05 s⁻¹	< 1e-05 s⁻¹	
C11U A64C C68G C70U	< 1e-05 s⁻¹	< 1e-05 s⁻¹		
C11G C16U G37A U55C	< 1e-05 s⁻¹			< 1e-05 s⁻¹
C11A A14C U55C U69G	< 1e-05 s⁻¹			
C10G G43U U45C G66C	< 1e-05 s⁻¹	< 1e-05 s⁻¹		
A12C U46A A52U C70G	< 1e-05 s⁻¹			
A12U G41C G51C	< 1e-05 s⁻¹			
G13A A52C C58G U69G	4.44e-05 ± 2e-05 s⁻¹			

Variant	self-cleavage kobs at 640 uM GlcN6P [1]	self-cleavage kobs at 2500 uM GlcN6P [2]	self-cleavage kobs at 10000 uM GlcN6P [3]	self-cleavage kobs at 160 uM GlcN6P [4]
C11G G35A C58G	< 1e-05 s⁻¹	< 1e-05 s⁻¹		< 1e-05 s⁻¹
C11U G40A	8.42e-05 ± 2.2e-05 s⁻¹			
A12C G41A A42U G51C C68G C70U	< 1e-05 s⁻¹			
C10G G37U G63A	< 1e-05 s⁻¹	< 1e-05 s⁻¹		
C11A A14C G35A C50G C71G	0.000433 ± 0.00014 s⁻¹	0.000131 ± 4.3e-05 s⁻¹		0.000211 ± 3.9e-05 s⁻¹
C10G G13A U31G A53U	< 1e-05 s⁻¹	< 1e-05 s⁻¹		
A12C G29A A39G A52U U69A	< 1e-05 s⁻¹			
A12U C50U	4.86e-05 ± 1.1e-05 s⁻¹	9.52e-05 ± 1.7e-05 s⁻¹	0.00036 ± 4.5e-05 s⁻¹	
C11G U47C	< 1e-05 s⁻¹		< 1e-05 s⁻¹	< 1e-05 s⁻¹
C11A G62U U65G	< 1e-05 s⁻¹			
C11A G13C C16G G40U	< 1e-05 s⁻¹			
C11A A36C A39C U45G G63U	< 1e-05 s⁻¹	< 1e-05 s⁻¹		< 1e-05 s⁻¹
C11G C16A G43U C61G	< 1e-05 s⁻¹	< 1e-05 s⁻¹		
A12U U47G A52U C61U	< 1e-05 s⁻¹			
C11G G32A U65G	< 1e-05 s⁻¹		< 1e-05 s⁻¹	< 1e-05 s⁻¹
G13C A14U A42U A64G	< 1e-05 s⁻¹			
A12U A33C G37C U56A	< 1e-05 s⁻¹			
A12G G35U U65C	< 1e-05 s⁻¹			
C10U G38U G59U	< 1e-05 s⁻¹			
G13A C16A C68G	7.67e-05 ± 3.7e-05 s⁻¹			
